The other results are listed elsewhere or left out.

The target in the experiment is T1, OsWOX13 (Oryza sativa, UniProt Q5QMM3 1-267).
T1 sequence: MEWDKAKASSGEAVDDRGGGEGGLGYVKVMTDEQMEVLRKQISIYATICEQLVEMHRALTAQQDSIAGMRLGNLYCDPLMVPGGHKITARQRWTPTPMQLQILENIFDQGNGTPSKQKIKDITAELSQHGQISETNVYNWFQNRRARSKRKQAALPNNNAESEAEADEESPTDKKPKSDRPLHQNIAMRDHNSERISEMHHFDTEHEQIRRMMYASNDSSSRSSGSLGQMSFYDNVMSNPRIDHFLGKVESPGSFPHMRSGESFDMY
The experiment in a line: protein-binding microarray (RPBM); PBS, 2% BSA, 51.3 ng/ul salmon testes DNA, 50 uM zinc acetate, 200 nM TF, 25 C, 1 h; high values mean tight binding. Particulars: protein: recombinant; tags: N-terminal polyhistidine and DsRed monomer fusion (pET32a); label: CyDye5-dUTP incorporated in the synthesized complementary strand; 3' TTTTT single-stranded linker to array surface; dsDNA, one strand shown. The method, boiled down:
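Binding signal is defined as the fluorescence intensity of each feature in arbitrary units, read on an Axon 4000B scanner. Transcription factors with N-terminal polyhistidine and DsRed fusions came from E. coli BL21-CodonPlus and were purified on Ni–NTA. They were incubated at 200 nM for 1 h at 25 °C on a custom Agilent array that had been made double-stranded with Cy5-dUTP, with 50 µM zinc acetate present, and the array was washed.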
For “CCTAATTAATCACTCCTTGGTATGCTAAATGCTGTCCTAACGGAGTCACCTAGTGCAG”, the binding signal was 37100 fluorescence intensity (a.u.).
Consider “ATATTACCAAAATTTTGACAGGATTTTATATGTATTTATCCGGAGTCACCTAGTGCAG”, for which the binding signal is 6380 fluorescence intensity (a.u.).
As for “TATATATATATATATCCGATCCATTTTCATCCCCACTTAACGGAGTCACCTAGTGCAG”, the figure is 3620 fluorescence intensity (a.u.); as for “TGTAATTATATTTCTATTATATACTGTAGTTGCATTTGAACGGAGTCACCTAGTGCAG”, 15500 fluorescence intensity (a.u.); as for “ACTTATTAAACCTGATTGGAGCCATGTTTGAAAACACAACCGGAGTCACCTAGTGCAG”, 20800 fluorescence intensity (a.u.).
For “AGATTGTTAGATTATTATTAGCATTTTATAGTACAGCCAGCGGAGTCACCTAGTGCAG”, the binding signal was 3590 fluorescence intensity (a.u.).
Consider “AGGAATATATATAATTTACAAATAACTAAAATTTGATATTCGGAGTCACCTAGTGCAG”, for which the binding signal is 4110 fluorescence intensity (a.u.).
As for “GCATACATATGATTGTTTTAGCAACTTGTTTGACGGCATGCGGAGTCACCTAGTGCAG”, the figure is 13700 fluorescence intensity (a.u.).
As to “GAGTAACTAATTAGTTACTCTTAAAACAATACCGTGCACCCGGAGTCACCTAGTGCAG”, the binding signal was 30100 fluorescence intensity (a.u.).
Then “ATTAATTTAGCACTTTCTCCTGTACTGGCAATCTGGATTTCGGAGTCACCTAGTGCAG”, with 15100 fluorescence intensity (a.u.); and “CCGAAACTTTTGAATTACCAAAATTATGGTAGAGAATCAACGGAGTCACCTAGTGCAG”, with 6050 fluorescence intensity (a.u.).
As for “AAGCTGAAATTTGTTAGAGTAATAGTTGACACCATTACCACGGAGTCACCTAGTGCAG”, the figure is 3160 fluorescence intensity (a.u.); as for “GATGAATTAGTGTAGGATTAATTATATATTAGTTAAAGAACGGAGTCACCTAGTGCAG”, 4000 fluorescence intensity (a.u.); as for “TTAAACTGATAAACTATATCACTATATTATCCAAGCAATCCGGAGTCACCTAGTGCAG”, 15100 fluorescence intensity (a.u.).
Turning to “GTCTAATTAGTCCATGATTAATTAGCCATAAGTTCTACAGCGGAGTCACCTAGTGCAG”, the binding signal was 53100 fluorescence intensity (a.u.).
“AAAATATATTAACTGGAATTCCAAGTGTATTACCTCATGTCGGAGTCACCTAGTGCAG”: the binding signal is 7370 fluorescence intensity (a.u.).
Then “CACTAATATGTGCTGTTATAAATGCTATTCCTTTGTTATTCGGAGTCACCTAGTGCAG”, with 3720 fluorescence intensity (a.u.); and “ATGATTGCACAATGTGCCAGAAAGCACTGCCTCATGCTCACGGAGTCACCTAGTGCAG”, with 22500 fluorescence intensity (a.u.).
As to “GGATTAATTTTAATCTTCGTTTCGAACAAAGAAATTAAGACGGAGTCACCTAGTGCAG”, the binding signal was 6550 fluorescence intensity (a.u.).
In the case of “CTAAGTGGTAAATTTGGGTGTAAACAGACACATATGCGAACGGAGTCACCTAGTGCAG”, the binding signal is 3470 fluorescence intensity (a.u.).
As for “TATATATATATATATATATATATATATATATATAAACAAACGGAGTCACCTAGTGCAG”, the figure is 16700 fluorescence intensity (a.u.); as for “TCTTAATTACACGTGAGCTATATTTGTACTGCCTTGGTCCCGGAGTCACCTAGTGCAG”, 40600 fluorescence intensity (a.u.).
Then “TGTGTCATCTGCGGCCTAATTGCTTGATTCATCGATCTTACGGAGTCACCTAGTGCAG”, with 5830 fluorescence intensity (a.u.).
As for “CTGTTAATTTAGGACACTGCAAGCCTCTGCATAGGCTTTCCGGAGTCACCTAGTGCAG”, the figure is 6340 fluorescence intensity (a.u.).
“GGTGACGCTGTCAGTCAGTCAGTCAAAGTAATCAACCGCGCGGAGTCACCTAGTGCAG”: the binding signal is 7620 fluorescence intensity (a.u.).
As for “TCCTAATGAAGATTTGGAACTTCGAAGTGTAGCTGAATGGCGGAGTCACCTAGTGCAG”, the figure is 6500 fluorescence intensity (a.u.); as for “ATAGATAGATTATATACAAAGGCAAAGCTTTTGTGCCCTTCGGAGTCACCTAGTGCAG”, 25600 fluorescence intensity (a.u.); as for “CTCCCCTAATTAAAAGTACAACAAATTGAAGGCATTTTGGCGGAGTCACCTAGTGCAG”, 16900 fluorescence intensity (a.u.).
Then “TGTCCATTGTTGATTAATGCTAAATACATATAACGGATTGCGGAGTCACCTAGTGCAG”, with 4490 fluorescence intensity (a.u.).
As to “CATATTGTTTTGATTCTACATAATTTATAAGTTGAATTTCCGGAGTCACCTAGTGCAG”, the binding signal is 3600 fluorescence intensity (a.u.).
As for “TTAGACACTAATTTAGAGTATTAAATATAGACTACTTACACGGAGTCACCTAGTGCAG”, the figure is 6410 fluorescence intensity (a.u.); as for “TTGTTGCATTATCTGTCAAATTATCTAACAACATTATCTTCGGAGTCACCTAGTGCAG”, 3880 fluorescence intensity (a.u.).
As for “TTTGATGAGGCAATACTAACTGCATCATCGCAACAGCTTACGGAGTCACCTAGTGCAG”, the binding signal is 5350 fluorescence intensity (a.u.).
Turning to “TGTAATTAAAATTCTATGATTGCAATTTGTAAACTTTAAACGGAGTCACCTAGTGCAG”, the binding signal is 5460 fluorescence intensity (a.u.).
As for “TTGGTAAATTGCTTTGGTAAGTTAAGAGGTCACATCACTACGGAGTCACCTAGTGCAG”, the figure is 5580 fluorescence intensity (a.u.).
As for “AAGGTCAAATTAATAATGGAATGGATGGTATTGCCTTGAGCGGAGTCACCTAGTGCAG”, the figure is 7630 fluorescence intensity (a.u.).
As for “TCGATTGGATTTGCTGTGAGGATCAAGTATGATTTGCCCACGGAGTCACCTAGTGCAG”, the figure is 4470 fluorescence intensity (a.u.).
For the sequence “TACGCATTGATTAGTTTTGTCAGGTTAGTATAGAATTTAACGGAGTCACCTAGTGCAG”, the binding signal was 14000 fluorescence intensity (a.u.).
As for “AGACAATTGATTTGGTATCATCTACGACATACGACATATTCGGAGTCACCTAGTGCAG”, the figure is 43900 fluorescence intensity (a.u.).
With “GCGCTGATTAGATGGAACTAAAACTTTAGTGTAAAGTGACCGGAGTCACCTAGTGCAG”, the binding signal is 39600 fluorescence intensity (a.u.).
With “CCCATCATTATTTCTTTGATTTCAGGTGATCTTCCCATCACGGAGTCACCTAGTGCAG”, the binding signal was 5580 fluorescence intensity (a.u.).
As for “ATGATTGTTTCGCTTATACTCATAATAAGCCGTAACGACTCGGAGTCACCTAGTGCAG”, the figure is 29700 fluorescence intensity (a.u.).

The values are drawn from PMC7819943, “Rice protein-binding microarrays: a tool to detect cis-acting elements near promoter regions in rice”.
